Results published in US9610259B2, “Compositions and methods for treating an autism spectrum disorder” (Children's Hospital Medical Center, priority 2014, dated 2017).
Counter-ions that a name gives are not always drawn. Like-named read-outs stand apart in the source and are kept apart here.

Legend:
[1] = tested on: BTBR mice (autism model); experiment: 3 Chamber Social Test; assay type: in vivo, mouse; settings: 10 mg/kg once weekly for 5 weeks
Experimental: Female B6 (WT; control) and BTBR mice (autism model) were mated with males of their respective strains. Pups from these mating strategy were used as subjects. At postnatal day 60 mice were either dosed with a saline vehicle (VEH) or 10 mg/kg racemic ketamine HCL (10 KET) once weekly for 5 weeks. On the 5th week mice were tested in the 3 Chamber Social Test 24 h following dosing. Mice were acclimated to the center chamber for 5 minutes and then allowed to explore all three empty chambers for 10 minutes. The test phase followed immediately in which a stranger mouse contained inside a metal bar chamber (stranger) was placed in one side chamber and an empty chamber (novel object) was placed in the other outside chamber. The VEH exposed BTBR mice avoided the chamber containing the stranger mouse which is a behavior typically reported in the literature and reminiscent of autism like social avoidance or disinterest.

[2] = cited from earlier work
[3] = tested on: persons with ASD; settings: in vivo; cited from earlier work
[4] = see EP 1567145 B1; cited from earlier work
[5] = cited from earlier work; remark: listed apart in the source
[6] = cited from earlier work; remark: listed apart in the source
[7] = tested on: patients with ASD / Autistic Disorder
[8] = tested on: patients with ASD / Autistic Disorder; experiment: Tolerability, adverse effects and vital signs after intranasal ketamine
[9] = tested on: patient with ASD; experiment: ADOS, Y-BOCS and EAT-26 during intranasal ketamine treatment, Example 3
[10] = tested on: patient with ASD; experiment: Depression rating scales (MADRS, BDI) and reported mood during intranasal ketamine treatment, Example 3
[11] = IN 30-120 mg per dose, 12 youth ages 6 to 19 years, open-label

Compound: CNC1(c2ccccc2Cl)CCCCC1=O (racemic) [racemic ketamine HCL]
- preference for the stranger mouse ([1]; BTBR mice, tested 24 h following dosing): increased preference
- motor behavior ([1]; WT (B6) and BTBR mice): did not alter
- incidence of emergence reactions ([2]; prescribing information): 12%

Compound: N[C@@H]1CONC1=O [DCS, d-cycloserine]
- outcome of placebo-controlled trials in ASD [3]: negative

Compound: CN[C@]1(c2ccccc2Cl)CCCCC1=O [S-ketamine]
- potency relative to R-ketamine [4]: two to three

Compound: NC12CC3CC(CC(C3)C1)C2 [amantadine]
- outcome of placebo-controlled trials in ASD [3]: negative

Compound: CNC1(c2ccccc2Cl)CCCCC1=O (centres unmarked) [ketamine, 2-(2-chlorophenyl)-2-(methylamino)-cyclohexanone]
- incidence of airway or respiratory complications ([2]; 2009 meta-analysis of 8,282 pediatric ketamine sedation cases): 3.9%
- incidents of emergence reaction ([2]; case series in 17 mentally handicapped adults undergoing sedation): no incidents
- outcome of unintentional overdose ([2]; children, 5 to 100 times the intended dose): prolonged but complete recovery
- incidence of emergence reaction ([2]; meta-analysis of ketamine use in children): 1.4%
- plasma levels required for ketamine induced anesthesia ([5]; adults): 0.6 to 2.0 µg/mL
- mean peak plasma concentration ([5]; children ages 2-9 years, 10-30 kg, 3 mg/kg IN, also printed 0.496 μg/ml): 496 ng/mL
- plasma levels required for ketamine induced anesthesia ([5]; children): 0.8 to 4.0 µg/mL
- duration of dissociative symptoms after dosing [6, 11]: less than 60 minutes
- symptoms of bipolar disorder [6, 11]: improved
- time to resolution of transient increase in dissociative symptoms ([6]; IV 0.5 mg/kg, depression): less than 90 minutes
- depression symptoms ([6]; IV 0.5 mg/kg): rapidly improve
- length of gaze fixation on the eye region of fearful, happy or calm faces ([7]; Example 3 patient, over the course of treatment, FIG. 1): significantly increased
- Fixation Duration on Eyes, post-dose ([7]; Example 4, person, 40 mg IN weekly, pre-dose 4.09, FIG. 2): 8.33 s
- Fixation Duration on Face, post-dose ([7]; Example 4, person, 40 mg IN weekly, pre-dose 14.01, FIG. 3): 21.7 s
- Fixation Duration on Eyes, post-dose ([7]; Example 5, person, initial 20 mg IN, 1 hour post-dose, pre-dose 2.92, FIG. 4): 12.79 s
- duration of mild headaches following each dose ([8]; Example 3 patient, IN 20-40 mg): 6 to 10 h
- duration of transient sedation, dizziness, numbness of limbs and face, blurred vision post-dose ([8]; Example 3 patient, IN 20-40 mg): approximately 90 minutes
- blood pressure, heart rate and temperature ([8]; Example 3 patient, monitored post dose): stable
- tolerability ([8]; Example 4, person, 20 mg then 40 mg weekly IN): minor sedation, but otherwise tolerated ketamine well
- ADOS score ([9]; repeat ADOS at six weeks): no change
- Y-BOCS or EAT-26 scores ([9]; throughout treatment): little change
- BDI score ([10]; person with ASD, IN ketamine 20-60 mg, Day 43, baseline BDI 35): 5
- MADRS score ([10]; person with ASD, IN ketamine 20-60 mg, Day 43, baseline MADRS 44): 15
- return to baseline mood post dose ([10]; post doses on days 1, 7 and 14 (20-40 mg IN)): 3 to 4 days
- BDI and MADRS scores following each dose ([10]; within 24 hours following each IN dose (20 or 40 mg)): dramatically improved

Compound: CC12CC3CC(C)(C1)CC(N)(C3)C2 [memantine]
- behavioural adverse effect in ASD [3]: irritability promoting effects
